Laboratory results: the supplement of paper PMC10338343
± gives the standard deviation. In all, about 6,600 sequences were measured (“pre-steady-state target cleavage rate”: median about 0.07, highest 2% from about 0.72 on). The list shows a part of the results, in another mix than the full data.

These sequences were tested on MIWI (PIWIL1) piRISC loaded with Kctd7 piRNA (30 nt) (assay: pre-steady-state target cleavage rate (min^-1); MIWI and MILI are mouse PIWI proteins and EfPiwi is from a freshwater sponge; tags in brackets are library labels; higher = faster piRNA-guided slicing of the target). Settings: guide: Kctd7 piRNA 5'p-UGUUAAUCUCUCAGAGAAGGUGACAGUGAU; auxiliary factor: 500 nM mouse GTSF1.
Procedure, shortened: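 In HEPES–potassium acetate buffer at 33 °C, […] transcribed, DNA-blocked target RNA library was mixed with 1 nM active affinity-purified piRISC carrying one synthetic guide, with or without 500 nM GTSF1 partner protein, for 0–8 or 0–960 min. Uncleaved targets were sequenced and normalised to depth and to weakly complementary targets; three trials were pooled and k3 was capped at 0.0001 min^-1. The pre-steady-state cleavage rate followed from a burst-and-steady-state fit.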
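Also: 1 nM active piRISC with 0.1 nM target library at 33 °C single turnover.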

| Sequence | pre-steady-state target cleavage rate |
| --- | --- |
| UAGACUGUCACCUUCUCUGAGAGAUUUAACA | 0.548 ± 0.048 |
| UACACUGUCUCCUUCUCUGACAGAUUAACA | 0.365 ± 0.025 |
| UAGACUGUCACCUUCUCAGUGAGAUUAACA | 0.0175 ± 0.0032 |
| UAGUGUGUCACCUUCUCUGAGAGAUAAACA | 0.313 ± 0.033 |
| UAGAGAGUCACCUUCUCUGAGAGAUAUUGA | 0.0271 ± 0.0098 |
| UACACUGUCACCUUCUCUGAGAGUAUAAGA | 0.00892 ± 0.0052 |
| UAGUGUGUCACCUUCACUGAGAGAUAAACA | 0.16 ± 0.021 |
| UACACUGUCACCUUCUGUGAGAGAUUAAGA | 0.053 ± 0.017 |
| UAGUCUGUCACCAUCUGUGAGAGAUUAACA | 0.142 ± 0.013 |
| UUCACUGUCACGAUCUCUGAGAGAUUAACA | 0.628 ± 0.039 |
| UAGUGACACACCUUCACUGAGAGAUUAUGA | 0.00944 ± 0.0049 |
| UAGUGACAGACCUUCUCUGGGAGAUUAACA | 0.0545 ± 0.0082 |
| AUCACAGUCACCUACUCUGAGAGAUUAACA | 0.679 ± 0.039 |
| UUCACUGAGUCCUUCUCUGAGAGAUUAACA | 0.402 ± 0.026 |
| UAGUGACUCUCCUUCUCAGAGAGAUUAACA | 0.00663 ± 0.0029 |
| UAGUGACUACCUUCUCUGAGAGAUUAACA | 0.175 ± 0.016 |
| UAGUGACAGUGCUUUUCUGAGAGAUUAACA | 0.00599 ± 0.002 |
| UUCACUGUCACCUAGUCUGAGAGAUUAUGA | 0.043 ± 0.011 |
| UUCACUGUCACCUUCUCUGAGAGAAAAAGA | 0.0143 ± 0.0062 |
| UAGUGAGUCGCCUUCUCUGAGAGAUUAACA | 0.52 ± 0.045 |
| UAGACUGUCACCUUCUCUGAGUGAUUAUCA | 0.00363 ± 0.0018 |
| UAGACUGUCACCUUCUCUGAGAGAAUUAACA | 0.442 ± 0.072 |
| AUCACUGUCACCUUCUCUGAGAGAUUCAACA | 0.563 ± 0.083 |
| UAGUGACAGUCCUUGUCUGAGUGAUUAACA | 0.00435 ± 0.0023 |

| Sequence | pre-steady-state target cleavage rate |
| --- | --- |
| UUCACUGUCACCUUCACUGAGAGAUUAAGA | 0.134 ± 0.025 |
| AUCACUGUCACCUUCUCUCAGAGAUAAACA | 0.064 ± 0.0084 |
| UUCACUGUCACCUUGUCUGACAGAUUAACA | 0.243 ± 0.031 |
| UAGUGAGUCACCUUCUCUGUGAGAUUAACA | 0.292 ± 0.016 |
| AUGCACUGUCACCUUCUCUGAGAGAUUAACA | 0.775 ± 0.056 |
| UAGUGACACACCUUCUCUGUGAGAUUAACA | 0.165 ± 0.011 |
| UAGUGACAGUCCUUCUCUGAGAGAUAUAACA | 0.00882 ± 0.0029 |
| UACACUGUCACCUACACUGAGAGAUUAACA | 0.269 ± 0.026 |
| UACACUGUCACCUUCUCUGAGAGAAAUUGA | 0.0381 ± 0.019 |
| UUCACUGUCACCUUCUGUGAGAGAUUAAGA | 0.0367 ± 0.012 |
| UAGUGAGUGACCUUCUCUGAGAGAUUAUGA | 0.0593 ± 0.011 |
| UAGUGACACACCAUCUCUGAGAGAUUAACA | 0.274 ± 0.027 |
| UACACUGUCACCUUCUCUGAGACUUUUUGA | 0.011 ± 0.0051 |
| UAGUCUGUCACCUUCUCUGAGAGAUAAUCA | 0.0812 ± 0.017 |
| AUCACUGUCUCCUUCUCUGAGAGUUUAACA | 0.525 ± 0.084 |
| UAGUGACAGUCCUUCUCUGAGAGAUUGAACA | 0.0191 ± 0.004 |
| UUCACUGUCUCCUUCUCUCAGAGAUUAACA | 0.104 ± 0.011 |
| AUCACUGUGACCUACUCUGAGAGAUUAACA | 0.631 ± 0.046 |
| UACACUGUCACCUUCUCACAGAGAUUAACA | 0.0289 ± 0.011 |
| UUCACUGUCACCUUCUCUGAGAGAUUAUACA | 0.296 ± 0.035 |
| UAGUCUGUCACCUUCUCUGAGCGAUUAACA | 0.146 ± 0.013 |
| UACACUGUCACCGUUCUCUGAGAGAUUAACA | 0.586 ± 0.03 |
| UAGUCUGACACCUUCUCUCAGAGAUUAACA | 0.0588 ± 0.005 |
| AUCACUGUCACCUUCUCAUGAGAGAUUAACA | 0.155 ± 0.054 |

| Sequence | pre-steady-state target cleavage rate |
| --- | --- |
| UAGUCUGUCACCUUCUCUGUGAGAUUAUCA | 0.0651 ± 0.012 |
| UAGUGUGUGUGCUUCUCUGAGAGAUUAACA | 0.0752 ± 0.0098 |
| UAGUGUGUGACCUUCUCUGAGAGUUUAACA | 0.115 ± 0.022 |
| UAGUGAGUCACCUUCUCACUGAGAUUAACA | 0.00684 ± 0.0034 |
| UAGUGUGUCACCUUCUCUGAGAGAUUGAACA | 0.124 ± 0.018 |
| UAGUGACACACCUUAUCUGAGAGAUUAACA | 0.22 ± 0.016 |
| UAGUGACAGACCUUCUCGGAGAGAUUAACA | 0.00462 ± 0.0035 |
| UAGUGUCUCACCUUCUCUCAGAGAUUAACA | 0.0742 ± 0.0091 |
| UUCACUGUCACCUUCUCUGAGAGUAAAACA | 0.0908 ± 0.013 |
| UAGACUGUCACCUUCUCUGAGAGAUUUUGA | 0.0119 ± 0.0044 |
| AUCACUGUCACGUUCUCUGAGAGAUUAACA | 0.821 ± 0.043 |
| UAGACUGUCACACUUCUCUGAGAGAUUAACA | 0.607 ± 0.04 |
| UAGUGACAGACCUUCUCUGAGAUAUUAACA | 0.0437 ± 0.011 |
| AUCACUGUCACCUUCUCUGAGAGAUAUUCA | 0.349 ± 0.081 |
| AACACUGUGACCUUCUCUGAGAGAUUAACA | 0.652 ± 0.034 |
| UAGUGAGUCACCUUCUCUGAAGAUUAACA | 0.0113 ± 0.0044 |
| UAGACUGUCAGGUUCUCUGAGAGAUUAAGA | 0.0291 ± 0.006 |
| UUCACACACACCUUCUCUGAGAGAUUAUGA | 0.153 ± 0.035 |
| UAGUGACAGUCCUUCUCUGAGAAAUUAACA | 0.0168 ± 0.004 |
| UUCAGUGUCACCUUCUCUGACAGAUUAACA | 0.324 ± 0.027 |
| UAGUGACUCACCUUUCUCUGAGAGAUUAACA | 0.118 ± 0.014 |
| AUCACUCUCACCUUCUCUGAGAGAUUUUGA | 0.105 ± 0.029 |
| UACACUGUCACCUUCUCUCAGUGAUUAACA | 0.00572 ± 0.0047 |
| UAGUGACUCUGCUUCUCUGAGAGAUUAACA | 0.00843 ± 0.0019 |
